{"source": "paper PMC12136788", "binders": {"B1": {"name": "chr12:132079871:132079972:+|3pUTR|ENSG00000183495|msi1|FALSE|bound_elsewhere (ssRNA)", "RNA": "GGGAGUUCUACAGUCCGACGAUCAGAUGCUACCGUUGACCUGAGUUAAAUUCAUUUAGUCGUGUACGUAAAAACUCUCCUUUUAGUGUGUUAUUUUCUUGGCCUUCCCUUUUAAAGGUUAAAGUUUCUAACCUAAGAAUUAAGCAACAGAGGAUUGAGCAUCA"}, "B2": {"name": "chr18:5392435:5392536:-|3pUTR|ENSG00000082397|msi1|total|mutant (ssRNA)", "RNA": "GGGAGUUCUACAGUCCGACGAUCAAGCCUUAAACUGUACAGAAUUUCCACUGUAAUUAAAACUAUUCCGUGUCCGUUAUAAACCGCCUUCAAAAAGAGAGAUUCUCCAUUACACGAUCACCUGCAUCACAGCCCAUGGUGAAUCAACAGAGGAUUGAGCAUCA"}, "B3": {"name": "chr7:5977587:5977790:-|CDS|ENSG00000122512|control|control|control (ssRNA)", "RNA": "GGGAGUUCUACAGUCCGACGAUCCAAAAUUGUAUUCUUUUAGCUCCAGUCACUGAAAGGGCUAAACUGAUUUCCUUGCCAACUAGUAAAAACUGGACCUUCGGACCCCAGGACGUCGAUGAACUGAUCUUCAUGCUGAGCGACCAACAGAGGAUUGAGCAUCA"}, "B4": {"name": "chr11:35726083:35726184:+|CDS|ENSG00000166326|msi1|total|mutant (ssRNA)", "RNA": "GGGAGUUCUACAGUCCGACGAUCGAGGCAAUGGCCACAGCUCAUGUGACUGAGAUACUGGCAGACAUCCAAUCCCACAUGGACCGGUUGAUGACUCAGAUGGCCCAAGCCAAGGAACAACUUGAUACCUCUAAUGAAUCAGCUCAACAGAGGAUUGAGCAUCA"}, "B5": {"name": "chr3:23954599:23954720:+|CDS|ENSG00000174738|unk|total|mutant (ssRNA)", "RNA": "GGGAGUUCUACAGUCCGACGAUCAGUGAGGGUUCUGAGAACCGUUUCCAGUCCUCCUCCUCUUCUGUUCCAUCUUCUCCAAACCGCUCUAAUUCUGAUACCAAUGGUAAUCCCAAGAAUGGUGAUCUCGCCAAUAUUGAAGGCCAACAGAGGAUUGAGCAUCA"}, "B6": {"name": "chr19:10690846:10690947:+|3pUTR|ENSG00000129351|msi1|FALSE|bound_elsewhere (ssRNA)", "RNA": "GGGAGUUCUACAGUCCGACGAUCGAAAGAGGUGAAAGAACAAGUUGUGUGCUAGAAAACUUUUGAGGAAUUCUUAUUUGUGUUAGAGCAGAGGAGGUCCCAGAUACCAAGUGGCGCCUCCCAGGAAAGGCUGGGAGAAGAGGUCAACAGAGGAUUGAGCAUCA"}, "B7": {"name": "chr4:75876286:75876673:-|CDS|ENSG00000156194|control|control|control (ssRNA)", "RNA": "GGGAGUUCUACAGUCCGACGAUCCGGUUCCCUGGACGGGCGGGAGCUCUCCCGGCAGGUGCGGAGCUCCGUGGAACUGGAGCUAGAGCGGUGCCGGCAGCAAGCAGGCCUCCUGGUGACCGGAGAGAAAGAGGAGCCCUCCCGCAACAGAGGAUUGAGCAUCA"}, "B8": {"name": "chr9:125307754:125307855:+|CDS|ENSG00000165219|unk|total|mutant (ssRNA)", "RNA": "GGGAGUUCUACAGUCCGACGAUCGGCUCUUGACAAUUUAUUGGCAAACCUACCCCCGGCCAAGCCAGGAAAAAGCCGCAGUUCCGAAAUGACUCCCUACAAUACACCUCAGCUAUCUCCAGCAACCACUCCAGCAAAUAAAAACAACAGAGGAUUGAGCAUCA"}, "B9": {"name": "chr14:80199969:80200157:-|3pUTR|ENSG00000211448|msi1|FALSE|unique (ssRNA)", "RNA": "GGGAGUUCUACAGUCCGACGAUCUUUAUGAUUUCUUGUGAUGUAUUCUUUUAUGAAAUUAACAAGAACUCAUUAUUUUGAGGUAGAGGAAAAUCAAUGCUUUAUCUGAUAUGCUGAGAAAUUAUUAGAUUGCCAAUACUCAUGCAACAGAGGAUUGAGCAUCA"}, "B10": {"name": "chr1:32075697:32075801:+|CDS|ENSG00000121775|unk|total|mutant (ssRNA)", "RNA": "GGGAGUUCUACAGUCCGACGAUCCGAGCUGCCAGUCCAGGCCAGCAUUCUGUUUGAGUUGCAGCUCUUCUUCUGCCAGCUCACCGCACUCUUCGUCCACUACAUCAACAUCUACAAGACAGUGUGGUGGUAUCCACCUUCCCACAACAGAGGAUUGAGCAUCA"}, "B11": {"name": "chr9:124878635:124878736:-|3pUTR|ENSG00000136935|msi1|FALSE|unique (ssRNA)", "RNA": "GGGAGUUCUACAGUCCGACGAUCCCAGCCAUUGAACUGGUCCCACACGCACCCCAGGCCCCACUCCUCGGCAGUUUCAGGUGUAGCUGUGGGGCCCGUUCCUAGGUCUGUACUCACUUUAGGGAGGCUUCACUGACUAGGCUUCAACAGAGGAUUGAGCAUCA"}, "B12": {"name": "chrX:30828625:30828726:-|3pUTR|ENSG00000157625|msi1|total|mutant (ssRNA)", "RNA": "GGGAGUUCUACAGUCCGACGAUCUUCUUGUUUCUUGUAAGAGGUUUCUUUAAAAUGACCCGUUUGAUGUAUCUGGUAACAUACCGGCCUGACUAUACAUUUUACAUUAUUUCGCUAUUUUGUAAACUGGGAUUUCCGAAAGCACAACAGAGGAUUGAGCAUCA"}, "B13": {"name": "ENSG00000070961:be:win_5851|3pUTR|ENSG00000070961|bound_else_gene|NA|bound_elsewhere_windowed (ssRNA)", "RNA": "GGGAGUUCUACAGUCCGACGAUCAUGAAUGUAAUUACCAAAAGAUUUAGAAGUGCAUGUGCUUUGGAGGAUUUGUAUUGAGCUUUUACAGUAUUCAUUUUUCAACUCAAGGCAAUGGCUUUCUACACCAACUCUAAUCCAUAACAACAGAGGAUUGAGCAUCA"}, "B14": {"name": "chr12:89642165:89642281:-|CDS|ENSG00000070961|unk|total|mutant (ssRNA)", "RNA": "GGGAGUUCUACAGUCCGACGAUCGCCAAAAACCUUUCUUCAAUCCGUAUGGGAAGCAUUACAAGAUGUCACUUUAAUUAUAUCCGAAAUUGCAGCCACCGUAUCAUUGGGCCUUUCUUUUUAUCAGCCUCCAGAAGGGGAUAACAACAGAGGAUUGAGCAUCA"}, "B15": {"name": "ENSG00000107863:be:win_4701|CDS|ENSG00000107863|bound_else_gene|NA|bound_elsewhere_windowed (ssRNA)", "RNA": "GGGAGUUCUACAGUCCGACGAUCCAGUCCAGAAACGAAACAUAGCGAGUUUUUGGCCAACGUCAGCACCAUCACCUCAGAUUAUUCCACCACAUCGUCUGCUACAUACUUGACUAGCCUGGACUCCAGUCGACUGAGCCCUGACAACAGAGGAUUGAGCAUCA"}, "B16": {"name": "ENSG00000070961:be:win_2651|CDS|ENSG00000070961|bound_else_gene|NA|bound_elsewhere_windowed (ssRNA)", "RNA": "GGGAGUUCUACAGUCCGACGAUCCUGUGCAGAUGCUGUGGGUAAACCUCAUAAUGGAUACACUCGCUUCCCUGGCUCUGGCAACGGAACCACCCACUGAGUCUCUCUUGCUUCGGAAACCUUAUGGUAGAAAUAAGCCUCUCACAACAGAGGAUUGAGCAUCA"}, "B17": {"name": "chrX:12823584:12823685:+|3pUTR|ENSG00000101911|unk|total|mutant (ssRNA)", "RNA": "GGGAGUUCUACAGUCCGACGAUCUGACUUAAAGGUAAUCAUUUCAGCUAAGAUUAAAUUUAAAGCCUAAGAAUGUACCGAGCCCGUUUUAAAAUAAUGAUCUCAGAUUUUUAAAAAGGAUACCGGAACCUGCAUUGUCAUUCUCAACAGAGGAUUGAGCAUCA"}, "B18": {"name": "chr21:43982464:43982545:+|3pUTR|ENSG00000160216|msi1_unk|total|mutant (ssRNA)", "RNA": "GGGAGUUCUACAGUCCGACGAUCCCCUGACGGUGGUAUCCAGUUAACUCAAAACCAACACACAGAGUGCAGGAAAAGACAAUCCGAAACUAUUUUUCUUAUUAACUGGUGACUAAUAUUAACAAAACUUGAGCCAAGAGUAAACAACAGAGGAUUGAGCAUCA"}, "B19": {"name": "chr2:148946928:148947042:+|CDS|ENSG00000168280|unk|total|mutant (ssRNA)", "RNA": "GGGAGUUCUACAGUCCGACGAUCGAAUGAACACAGCUCCCGAAGUCACAGUAUCUUCCUGAUAAAUAUUAAACAAGAGAAUGCCGAGACUGAAAAAAAACUCAGUGGGAAACUUUAUUUGGUUGAUUUGGCUGGGAGCGAAAACAACAGAGGAUUGAGCAUCA"}, "B20": {"name": "chr8:11323570:11323671:+|3pUTR|ENSG00000104643|unk|FALSE|unique (ssRNA)", "RNA": "GGGAGUUCUACAGUCCGACGAUCGAGCAUACAUAUACAAUGUGUUUCAAAUGCUGCUUGUAAAAUUAAACCAUCAUCUAGAAUAGAGUUAAUUUAUUAUAAUCAAGCUACAAAUAGGUUUUCUUAAACCAGAGAUGCACUGCCCAACAGAGGAUUGAGCAUCA"}, "B21": {"name": "ENSG00000136888:stop:overlap|stop_codon|ENSG00000136888|stop_codon|NA|stop_codon (ssRNA)", "RNA": "GGGAGUUCUACAGUCCGACGAUCUCUUGGCUUUUGUCUGUGACAUUCGGCCAGAAAUCCAUGAAAACUACCGCAUAAAUGGAUAGAAGAGAGAAGCACCUGUGCUGUGGAGUGGCAUUUUAGAUGCCCUCACGAAUAUGAAGCCAACAGAGGAUUGAGCAUCA"}, "B22": {"name": "chr18:67510860:67510961:-|3pUTR|ENSG00000171451|msi1|FALSE|bound_elsewhere (ssRNA)", "RNA": "GGGAGUUCUACAGUCCGACGAUCACUAAUAAUACUUACCAACCCACUUUGUGGAUAUGAAUCAGAAGAGUUUGUUUAUUCUUUAGUGUGUGUGUGUGUGUGCACGCGUGUAUGUGUUCAGUGUUGUUUGCACAGAGAGAUUGUCAACAGAGGAUUGAGCAUCA"}}, "note": "Some of the results follow."}
{"target": "MSI1 full-length (mouse, UniProt Q61474 1-362)", "sequence (Q61474 whole entry)": "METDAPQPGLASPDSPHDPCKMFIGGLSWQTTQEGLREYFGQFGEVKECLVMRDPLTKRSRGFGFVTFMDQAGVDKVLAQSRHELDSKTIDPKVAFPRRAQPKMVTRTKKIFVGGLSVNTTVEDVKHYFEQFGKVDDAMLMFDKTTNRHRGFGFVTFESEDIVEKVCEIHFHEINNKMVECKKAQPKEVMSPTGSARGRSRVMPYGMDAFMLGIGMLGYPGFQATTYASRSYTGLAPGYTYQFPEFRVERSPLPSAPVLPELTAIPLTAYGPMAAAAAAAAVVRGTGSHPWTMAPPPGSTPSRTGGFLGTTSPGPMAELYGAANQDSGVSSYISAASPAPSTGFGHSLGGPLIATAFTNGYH", "experiment": "nsRBNS (natural sequence RNA bind-n-seq); RBNS binding buffer (assumed for nsRBNS): 25 mM Tris pH 7.5, 150 mM KCl, 3 mM MgCl2, 0.01% Triton X-100, 500 ug/ml BSA, 20 U/ml SUPERase-In, 4 C; UNK is unkempt and MSI1 is Musashi-1; names of the RNAs are library labels; protein concentration not given here; high values mean tight binding", "units": {"binding signal": "enrichment R"}}
{"binder": "B1", "binding signal": 4.94}
{"binder": "B2", "binding signal": 0.785}
{"binder": "B3", "binding signal": 0.798}
{"binder": "B4", "binding signal": 0.359}
{"binder": "B5", "binding signal": 0.482}
{"binder": "B6", "binding signal": 1.16}
{"binder": "B7", "binding signal": 0.349}
{"binder": "B8", "binding signal": 0.539}
{"binder": "B9", "binding signal": 0.522}
{"binder": "B10", "binding signal": 0.431}
{"binder": "B11", "binding signal": 0.478}
{"binder": "B12", "binding signal": 0.416}
{"binder": "B13", "binding signal": 5.98}
{"binder": "B14", "binding signal": 0.453}
{"binder": "B15", "binding signal": 0.579}
{"binder": "B16", "binding signal": 0.326}
{"binder": "B17", "binding signal": 0.29}
{"binder": "B18", "binding signal": 0.485}
{"binder": "B19", "binding signal": 0.453}
{"binder": "B20", "binding signal": 4.16}
{"binder": "B21", "binding signal": 0.385}
{"binder": "B22", "binding signal": 0.452}
